# In all, about 410,000 compounds went through this assay and about 260 (0.063%) were called active. The shares of active, inactive and inconclusive entries below differ from those in the screen. Calls come from the whole dose curve; as a rule, active = well fitted activation curve with a large enough effect; inconclusive = small, poorly fitted or top-dose-only effect; inactive = no such curve, though single readings can be large or run the other way. Potencies of inconclusive entries are left out as doubtful fits.
# Assay: qHTS for compounds that reverse cellular toxicity of Amyloid beta (A-beta) peptide in yeast: Primary Screen; note: nearly all actives have a fitted effect of over 55% in size
# Conditions: yeast expressing A-beta42, growth rescue, OD600, 48 h; growth rescue: at 46.1 µM (top of the series), 0% DMSO, 100% iron-clioquinol control
# Outline: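 Yeast A-beta toxicity model in growth medium with pinned compounds, 48 h at 30 C; growth read as absorbance at 600 nm. Normalized to FeCl3/clioquinol equimolar mix (positive) and DMSO (negative).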
# Potency is the fitted concentration of half-maximal effect; tags give direction and shape of the fitted curve.
SMILES,growth rescue,Potency
COc1ccc(CCCNC(=O)C2CCC(=O)N(CC3CCCCC3)C2)cc1 (centres undefined),inactive: -3.44%,–
O=C(NCCCN1CCCCCC1)c1ccc(CS(=O)(=O)Cc2ccccc2F)o1,inactive: 2.13%,–
COc1ccc(C(CC(=O)Nc2cc([N+](=O)[O-])ccc2OC)c2ccccc2)cc1 (centres undefined),–,"inconclusive [activator, full curve]"
Cc1ccc(NC(=S)NC(=O)C2CCCCC2)c(Br)c1,–,"inconclusive [activator, partial curve, poor fit]"
COc1ccc(CC(=O)O/N=C(\N)Cc2ccc(OC)cc2)cc1,inactive: 11.1%,–
CC1CCC2(CC1)NC(=O)c1ccccc1O2 (centres undefined),–,"inconclusive [activator, partial curve, poor fit]"
COCCn1c(SCC(=O)NC(=O)NC2CCCCC2)nc2ccccc2c1=O,–,"inconclusive [activator, single point]"
CC1Cc2ccccc2N1C(=S)NC(=O)C1(C)CC1(Cl)Cl (centres undefined),–,active: 12.6 µM
O=C1SC(Nc2ccc(Cl)cc2)C(=O)N1Cc1ccccc1 (centres undefined),–,"inconclusive [activator, partial curve, poor fit]"
COC(=O)/C=C1\S/C(=N\N=C\CC(=O)OC)NC1=O,–,"inconclusive [activator, single point]"
Cc1cc(NC(=O)C(C)SCC(=O)Nc2cc(C(F)(F)F)ccc2N2CCCCC2)no1 (centres undefined),–,"inconclusive [activator, single point]"
Cc1cccc(C)c1NC(=S)Nc1ccc(Cl)c(Cl)c1,–,"inconclusive [activator, partial curve]"
OC[C@@H]1CN(Cc2ccc(-c3ccccc3)cc2)C[C@H](n2cnc3c(Nc4ccccc4)ncnc32)O1,–,"inconclusive [activator, single point]"
Cn1cnnc1Sc1ccc(C(=O)OCC(=O)Nc2cc(Cl)cc(Cl)c2)cc1[N+](=O)[O-],–,"inconclusive [activator, full curve]"
Cc1cc(C)c(NS(=O)(=O)c2ccc(-c3cnc(C4CC4)o3)cc2)c(C)c1,–,active: 12.6 µM
CC(C)c1ccc(NC(=O)CN2C(=O)c3ccccc3S2(=O)=O)cc1,inactive: -11.6%,–
COc1cccc(OCc2nc3ccccc3n2Cc2ccccc2C)c1,–,"inconclusive [activator, single point]"
COc1cccc(CNC(=O)CCNS(=O)(=O)c2cccc3nonc23)c1,–,"inconclusive [activator, single point]"
O=C(COc1ccc2ccccc2c1)N1CCN(c2ccccc2O)CC1,–,"inconclusive [activator, single point]"
CCN(CC(=O)Nc1cc(Cl)ccc1C)C(=O)CSCc1ccc(C)cc1,–,"inconclusive [activator, single point]"
COc1ccccc1OCC(=O)NNC(=S)NC(=O)c1ccco1,–,active: 7.94 µM
C[C@@H]1CN([C@@H](C)CO)C(=O)c2cc(C#Cc3ccccc3)cnc2O[C@H]1CN(C)C(=O)c1ccccc1F,inactive: 4.46%,–

SMILES,growth rescue,Potency
O=c1c(-c2nnc(SCc3ccc(Cl)cc3Cl)o2)cccn1Cc1ccccc1,inactive: 3.08%,–
CN(C)c1ccc(/C=C(\C#N)C(=O)Nc2nc3c(s2)CCN(Cc2ccccc2)C3)cc1,–,"inconclusive [activator, full curve, poor fit]"
O=C1CCC(NC(=O)c2ccccc2)C(=O)N1 (centres undefined),–,"inconclusive [activator, single point]"
CCCCNC(=O)C[C@@H]1C[C@@]2(C(=O)OC)CCCCC=C2N(Cc2ccc(Cl)cc2Cl)C1=O,–,"inconclusive [activator, partial curve]"
COc1ccc(/C=N/NC(=O)c2ccc(NC(=O)C3CCCCC3)cc2)cc1O,–,"inconclusive [activator, single point]"
CCC(C(=O)Nc1nc(C)c(C)s1)c1ccccc1 (centres undefined),–,"inconclusive [activator, single point]"
Cc1cccnc1C1=NOC(Cc2ccccc2)C(=O)N1Cc1ccc(F)cc1 (centres undefined),–,"inconclusive [activator, single point]"
O=C1OCCC1Sc1nnc(-c2ccc3c(c2)OCO3)o1 (centres undefined),inactive: -8.91%,–
Cc1ccccc1Cn1c(Cc2ccccc2)nc2ccccc21,–,"inconclusive [activator, partial curve, poor fit]"
CSc1cccc(NC(=O)CN2CCN(Cc3ccccc3C)S2(=O)=O)c1,–,"inconclusive [activator, single point]"
CCOc1ccccc1N(CC(=O)NC1CCCCC1)C(=O)CCC(=O)Nc1nccs1,inactive: -8.66%,–
CC1CCC(Nc2nc3c(-c4cccc(C(F)(F)F)c4)nnn3c3ccccc23)CC1 (centres undefined),inactive: 4.44%,–
CCOc1ccc(C2NC(=O)c3c(COC)cc(C)nc3N2Cc2ccccc2)cc1OC (centres undefined),inactive: -4.32%,–
COc1ccc(NC(=O)CN2CCN(S(=O)(=O)c3ccc(C(C)C)cc3)CC2)cc1OC,–,"inconclusive [activator, partial curve, poor fit]"
CCn1nc(C)c(C(=O)Nc2cc(Oc3ccc(Cl)cc3)cc([N+](=O)[O-])c2)c1C,inactive: 7.04%,–
CC(C)(C)c1cc(OC(=O)C2CCCC2)ccc1O,–,"inconclusive [activator, single point]"
COc1ccc(Br)cc1S(=O)(=O)N1CCCc2ccccc21,–,"inconclusive [activator, partial curve]"
O=C(Nc1ncc(Cc2cccc(Cl)c2Cl)s1)C1CCCO1 (centres undefined),–,"inconclusive [activator, partial curve]"
COc1ccc2c(c1)C(=O)CC(c1ccc(OC)c(OC)c1)O2 (centres undefined),inactive: 23.1%,–
COc1ccc(C(O)c2nc(-c3ccc(F)c(Cl)c3)cs2)cc1 (centres undefined),–,"inconclusive [activator, partial curve, poor fit]"
Cc1ccccc1-c1cc2c(c3c1ccn3C)C1CCC2O1 (centres undefined),–,"inconclusive [activator, single point]"
CCOc1ccccc1NC(=O)N1CCC(NC(=O)c2cccc(C)c2)CC1,–,"inconclusive [activator, single point]"

# From PubChem BioAssay AID1347071 (National Center for Advancing Translational Sciences (NCATS), 2019)
